Experimental data published in PubChem BioAssay AID360 (National Center for Advancing Translational Sciences (NCATS), 2006).
Screen size: about 48,000 compounds; about 550 (1.1%) were called active. Another 4% or so got no clear call; they are omitted. No stated cut-off is given here; in the data, active means potency below about 15 µM; inconclusive means mostly about 16 µM to 33 µM; inactive means weaker than that. Some of the results follow.

Target: Lysosomal acid glucosylceramidase (Homo sapiens) (UniProt P04062)
UniProt P04062, sequence (P04062 whole entry, looked up): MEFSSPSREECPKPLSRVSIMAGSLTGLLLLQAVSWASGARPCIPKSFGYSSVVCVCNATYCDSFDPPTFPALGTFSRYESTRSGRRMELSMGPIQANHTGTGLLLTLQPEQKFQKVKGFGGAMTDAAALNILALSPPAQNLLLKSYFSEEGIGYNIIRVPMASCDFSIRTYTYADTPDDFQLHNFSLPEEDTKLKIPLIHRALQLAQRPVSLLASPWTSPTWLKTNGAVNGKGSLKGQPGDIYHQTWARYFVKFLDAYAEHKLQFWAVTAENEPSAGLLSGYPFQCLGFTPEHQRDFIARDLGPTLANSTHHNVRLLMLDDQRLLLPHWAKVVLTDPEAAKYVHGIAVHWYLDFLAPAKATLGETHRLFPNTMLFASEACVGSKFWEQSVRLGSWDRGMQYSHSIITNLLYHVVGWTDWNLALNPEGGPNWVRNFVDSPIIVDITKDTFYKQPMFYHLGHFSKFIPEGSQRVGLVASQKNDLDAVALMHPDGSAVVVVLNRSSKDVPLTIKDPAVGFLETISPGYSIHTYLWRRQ
Assay: Glucocerebrosidase;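 further: the screen sought inhibitors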
Conditions: purified enzyme, resorufin glucoside fluorescence (screen aimed at inhibitors), 20 min
In short: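 Wild-type enzyme at 0.2 nM final in 50mM citric acid/KH2PO4, 10mM sodium taurocholate, 0.01% tween-20, pH 5.9, with resorufin beta-D-glucopyranoside at 30 uM final. Compounds titrated, 20 min at RT, red fluorescence read; AC50 from titration.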
Potency means the concentration at half of the fitted maximal effect.

Potency, active:
Cc1nnc(NC(=O)c2ccccc2Br)s1 3.89 µM

Potency, inactive:
C=CCNC(=O)C1CCCN(S(C)(=O)=O)C1 (stereo not drawn) > 76.9 µM, O=C(Nc1ccc(F)cc1)C1CCCCC1 > 76.9 µM, Cc1nc(C)c(C(=O)C2=C(O)C(=O)N(CCN3CCOCC3)C2c2ccco2)s1 (stereo not drawn) > 76.9 µM, CCOc1ccc(S(=O)(=O)Nc2ccc(S(=O)(=O)N3CCOCC3)cc2)cc1 > 76.9 µM, Cc1ccc(CS(=O)(=O)CCC(=O)NCCN2CCCC2)cc1 > 76.9 µM, CCOC(=O)c1ccc(NC(=O)CC2C(=O)N(c3cccc(OC)c3)C(=O)N2CCOC)cc1 (stereo not drawn) > 76.9 µM, CCS(=O)(=O)n1nc(-c2ccccc2)nc1NCc1ccco1 > 76.9 µM, Cc1cc(=O)n2nc(-c3ccccc3)sc2c1C#N > 76.9 µM, Cc1nc2c(c(=O)n1CCC(C)C)c1nc3ccccc3nc1n2Cc1ccc2c(c1)OCO2 > 76.9 µM, COC(=O)C1=C(C)NC(C)=C(C(=O)OC)C1C(=O)OC1CCCCC1=O (stereo not drawn) > 76.9 µM, COc1ccc(-c2nn3cnnc3s2)cc1OC > 76.9 µM, Cc1c(C(=O)Nc2cnccn2)oc2ccccc12 > 76.9 µM, CC1Cc2ccccc2N1C(=O)Cn1nnc(-c2ccccc2NC(=O)C2CCC2)n1 (stereo not drawn), CCOc1ccc(-c2noc(CCC(=O)NC)n2)cc1OCC > 76.9 µM, O=C(O)C1C2C=CC(C2)C1C(=O)Nc1ccc(C(=O)N2CCCCC2)cc1 (stereo not drawn) > 76.9 µM, CCN1C(=O)CC(N2CCC(Nc3ccc(OC)cc3)CC2)C1=O (stereo not drawn) > 76.9 µM, CCC(C)[C@H](NC(=O)Nc1ccc2c(c1)OCCO2)C(=O)O (stereo partly drawn) > 76.9 µM, Brc1ccc(CSc2nnc(Cc3c[nH]c4ccccc34)o2)cc1 > 76.9 µM, COc1ccccc1-c1noc(-c2ccco2)n1 > 76.9 µM, O=C(Cn1nc(-c2cccc(Cl)c2)ccc1=O)Nc1cccnc1 > 76.9 µM, Cc1nc2nc(SCC(=O)NCc3ccco3)nn2c(C)c1Cc1ccccc1 > 76.9 µM, c1ccc2c3c([nH]c2c1)-c1[nH]ncc1CC3 > 76.9 µM, CC1CCCC(C)N1C(=O)CSc1nnc(C2CCCCC2)o1 (stereo not drawn) > 76.9 µM, O=C(Nc1ccncc1)c1cncc(Br)c1, CN(c1ccc(C(=O)NCc2ccncc2)cc1)S(C)(=O)=O > 76.9 µM, CCCCCCn1c(SCCCC)nc2c1c(=O)[nH]c(=O)n2C > 76.9 µM, CCN(C(=O)CN1CCN(C)CC1)c1cccc2ccccc12 > 76.9 µM, CCCOc1cccc(C2/C(=C(/O)c3ccncc3)C(=O)C(=O)N2CCCN(C)C)c1 (stereo not drawn) > 76.9 µM, COC(=O)CSc1nnc(CNC(=O)c2cccs2)n1-c1cccc(C)c1 > 76.9 µM, CCN(CC)CCOc1ncnc2c1oc1ccccc12 > 76.9 µM, CCN(c1ccc(OC)cc1)S(=O)(=O)c1ccc2c(c1)CCN2C(=O)CCC(=O)O > 76.9 µM, Cc1cc2nn(-c3cccc4ccccc34)nc2cc1N > 76.9 µM, O=C(c1c(F)cccc1F)N(Cc1ccccn1)C1CCCC1 > 76.9 µM, Cc1cc(C(=O)Cn2cncn2)c(C)n1CCc1ccc(F)cc1 > 76.9 µM, CCc1ccc(NC(=O)CNS(=O)(=O)c2c(C)noc2C)cc1 > 76.9 µM, COC(=O)[C@@H](NC(=O)Nc1ccc2c(c1)OCCO2)C(C)C > 76.9 µM, Cn1c(CSCc2ccc(Cl)c(Cl)c2)nnc1SCC(=O)Nc1nccs1 > 76.9 µM, CCC(=O)NCCCCNC(=O)CC > 76.9 µM, CC(C)C(=O)Nc1c2c(nc3c1CCC3)CCCC2 > 76.9 µM, COc1ccc(NC(=O)N[C@@H](CCSC)C(=O)O)cc1Cl > 76.9 µM, COc1ccccc1C(=O)Nc1ccc(-c2nnc(SCC(=O)O)n2C)cc1 > 76.9 µM, N[C@@H](Cc1ccccc1)c1nnc(SCc2ccccc2F)o1 > 76.9 µM, COC(=O)c1nc(-c2ccccc2)oc1N(C)C > 76.9 µM, Cn1c(=O)[nH]c(=O)c2c1nc(NCCCn1ccnc1)n2Cc1cccc(Br)c1 > 76.9 µM, COC(=O)c1ccc(O)c(Sc2cc(C(=O)OC)ccc2O)c1 > 76.9 µM, O=S(=O)(Nc1cccc2ncccc12)c1cccs1 > 76.9 µM, CCNc1ccc(S(=O)(=O)C(F)(F)F)cc1NC(=O)C12CCC(CC1)C2 > 76.9 µM, Cc1cc(C)c(C(=O)COC(=O)Cn2cnnn2)cc1C, O=C(Nn1cnnc1)c1ccccc1-c1ccccc1 > 76.9 µM, Cc1ccc(C)c(N2CCN(C(=O)CCS(=O)(=O)c3cccc4nonc34)CC2)c1 > 76.9 µM, Cc1cc(C)c(NC(=O)CN2CCN3CCCC3C2)c(C)c1 (stereo not drawn) > 76.9 µM, CCOC(=O)c1sc(=S)n2c1[nH]c(=O)c1ccc(C(=O)OC)cc12 > 76.9 µM, Clc1ccc2nc(CN3CCCCC3)cn2c1 > 76.9 µM, O=c1cc(-c2ccccc2)nc(N2CCCCC2)[nH]1 > 76.9 µM, O=C(CCNS(=O)(=O)c1cccc2nsnc12)NCc1cccs1 > 76.9 µM, COCCN(CCOC)S(=O)(=O)c1ccc(C(=O)Nc2nnc(C)o2)cc1 > 76.9 µM, Cc1ccc(-c2[nH]nc3c2C(c2cccnc2)C(C#N)=C(N)O3)cc1 (stereo not drawn) > 76.9 µM, NCCc1nnc(SCc2ccccc2)o1 > 76.9 µM, Cc1noc(NS(=O)(=O)c2ccc(NC(=O)C34CCC(CC3)C4)cc2)c1C > 76.9 µM, O=C(Nc1cnccn1)c1ccncc1 > 76.9 µM, COc1nc(N)nc(N2CCOCC2)n1 > 76.9 µM, Fc1ccc(NCc2cn3ccccc3n2)cc1 > 76.9 µM, FC(F)(F)c1ccc2c(c1)nc1n2CCCC1 > 76.9 µM, CC(C)(Oc1ccc(Cl)cc1)C(=O)NCCCn1ccnc1 > 76.9 µM, CCOC(=O)c1cn2c3c(c(F)c(F)c(F)c3c1=O)SC(N1CCCC1)=N2 > 76.9 µM, CCCCOC(=O)C1=C(C)Nc2ncnn2C1c1cc(OC)ccc1OC (stereo not drawn) > 76.9 µM, COc1ccc(-c2cc(C(=O)NCCc3ccccc3)no2)cc1OC > 76.9 µM, O=C(CSc1nc2ccccc2[nH]1)NCCN1CCCCC1 > 76.9 µM, Cc1ccccc1S(=O)(=O)Cc1ccc(C(=O)NCCN2CCN(Cc3ccccc3)CC2)o1 > 76.9 µM, [O-]/[N+](=C\c1ccncc1)c1ccccc1 > 76.9 µM, CCOCCCNc1nc2c(c(=O)n(C)c(=O)n2C)n1CCCc1ccccc1 > 76.9 µM, COC(=O)c1ccccc1NC(=O)CN1CCC(n2nnc3cc(F)ccc32)CC1 > 76.9 µM, C=COC(=O)CSc1snc(SCC(=O)OC)c1C#N > 76.9 µM, CCCCCn1c(SCCC(C)C)nc2c1c(=O)[nH]c(=O)n2C > 76.9 µM, CCc1ccc(-c2nc(CSCC(=O)NCCCN3CCCC3=O)c(C)o2)cc1 > 76.9 µM, CCN(CC)S(=O)(=O)c1ccc2nc(CSc3nnnn3-c3ccc(O)cc3)[nH]c2c1, CC1CCc2nc(NC(=O)CSc3nc4ccccc4o3)sc2C1 (stereo not drawn) > 76.9 µM, CC(=O)Nc1ccc(S(=O)(=O)N2CCCCC2c2cccnc2)cc1 (stereo not drawn) > 76.9 µM, COc1cc2c(cc1OC)C(/C(C#N)=N\O)=NC(C)(C)C2 > 76.9 µM, CCOCCCNC(=O)c1c[nH]c2cc(C)ccc2c1=O > 76.9 µM, COC(=O)c1ccc(N(CC(=O)NC2CCCC2)C(=O)CNC(=O)c2ccco2)cc1 > 76.9 µM, CCOc1ccccc1NC(=O)c1ccc(F)c(S(=O)(=O)N2CCC3(CC2)OCCO3)c1 > 76.9 µM, Cc1ccc(S(=O)(=O)Nc2cc(C(=O)N3CCOCC3)ccc2N2CCCCC2)cc1 > 76.9 µM, Cc1nccn1CCC(=O)O > 76.9 µM, Cc1cccc2cc(CN(CCCN3CCOCC3)Cc3nnnn3C(C)(C)C)c(=O)[nH]c12 > 76.9 µM, COc1cc(C2CC(=O)NC3=C2C(=O)CC(C)(C)C3)ccc1O (stereo not drawn) > 76.9 µM, O=C(Nc1ccn(-c2ccccc2)n1)c1ccc(S(=O)(=O)N2CCCCCC2)cc1 > 76.9 µM, O=C(CN1C(=O)c2cccc3cccc1c23)N1CCN(Cc2ccc3c(c2)OCO3)CC1 > 76.9 µM, CCOc1cc(C(=O)N2CCc3cc(OC)c(OC)cc3C2)ccc1OC(F)F > 76.9 µM, CC12CCC(C(=O)N3CCN(Cc4ccccc4)CC3)(OC1=O)C2(C)C (stereo not drawn) > 76.9 µM, CC(C(=O)OCn1nnc2ccccc2c1=O)N1C(=O)c2ccccc2C1=O (stereo not drawn) > 76.9 µM, CCC(C)(C)n1nnnc1C(C(C)C)N1CCSCC1 (stereo not drawn) > 76.9 µM
